Experimental data: publication PMC5960634 (Biochemical pharmacology, 2018)
Where a name gives a salt, the structure may show the parent alone.

System: CYP2A6 and CYP2B6 mRNA in human astrocytes and HepaRG cells
Conditions: ERα silenced by siRNA

Row | SMILES | induction of CYP2A6 and CYP2B6 mRNA expression after ERα siRNA knockdown
1 | Cl.N[C@@]1(c2ccccc2Cl)CCC[C@@H](O)C1=O [(2R,6R)-HNK] | failed to induce
2 | CNC1(c2ccccc2Cl)CCCCC1=O (stereo not drawn) [ketamine, Ketamine hydrochloride] | lost
3 | Cl.N[C@]1(c2ccccc2Cl)CCC[C@H](O)C1=O [(2S,6S)-HNK] | failed to induce
